# Experimental data as given in the supplement of paper PMC4967469.
# Lines with a small IC50 respond at low doses; a fit beyond the top or the lowest dose is shown as a bound at that dose. AUC is the area under the same curve over the 256-fold range up to the top dose, as a fraction: 1 means no effect, lower means more sensitive. For some of these results: Any top dose called inferred was calculated from the reported fits.
# Key:
# Test in all cases: Viability of human cancer cell lines after 72 h of drug (GDSC screen)
# 17-AAG = compound: C=CCNC1=C2C[C@@H](C)C[C@H](OC)[C@H](O)[C@@H](C)/C=C(\C)[C@H](OC(N)=O)[C@@H](OC)/C=C\C=C(/C)C(=O)NC(=CC1=O)C2=O [17-AAG]; settings: top dose 1 µM
# Procedure: (§1)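 Human cancer cell lines in 384-well plates, medium with 10% serum, drug for 72 h over a 256-fold dose range (nine 2-fold or five 4-fold steps up to the top dose). Adherent lines were fixed and stained with the nucleic acid dye Syto60, suspension lines read with resazurin; signal relative to control wells, capped at 0 and 100%. One two-parameter sigmoid per drug and line, fitted in a mixed model over all curves with the slope shared within a line.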
# Doxorubicin = compound: COc1cccc2c1C(=O)c1c(O)c3c(c(O)c1C2=O)C[C@@](O)(C(=O)CO)C[C@@H]3O[C@H]1C[C@H](N)[C@H](O)[C@H](C)O1 [Doxorubicin]; settings: top dose 1.024 µM
# Procedure: as §1
# BIX02189 = compound: CN(C)Cc1cccc(N=C(c2ccccc2)c2c(O)[nH]c3cc(C(=O)N(C)C)ccc23)c1 [BIX02189]; settings: top dose 20 µM; top dose inferred
# Procedure: as §1
# CCT018159 = compound: CCc1cc(-c2n[nH]c(C)c2-c2ccc3c(c2)OCCO3)c(O)cc1O [CCT018159]; settings: top dose 10 µM; top dose inferred
# Procedure: as §1
# OSI-027 = compound: COc1cccc2cc(-c3nc([C@H]4CC[C@H](C(=O)O)CC4)n4ncnc(N)c34)[nH]c12 [OSI-027]; settings: top dose 20 µM
# Procedure: as §1
# TG101348 = compound: Cc1cnc(Nc2ccc(OCCN3CCCC3)cc2)nc1Nc1cccc(S(=O)(=O)NC(C)(C)C)c1 [TG101348]; settings: top dose 10.24 µM
# Procedure: as §1
# VX-11e = compound: Cc1cnc(Nc2ccc(F)cc2Cl)nc1-c1c[nH]c(C(=O)N[C@H](CO)c2cccc(Cl)c2)c1 [VX-11e]; settings: top dose 5.12 µM; top dose inferred
# Procedure: as §1
# Vismodegib = compound: CS(=O)(=O)c1ccc(C(=O)Nc2ccc(Cl)c(-c3ccccn3)c2)c(Cl)c1 [Vismodegib]; settings: top dose 10 µM; top dose inferred
# Procedure: as §1
# Dimethyloxalylglycine = compound: COC(=O)CNC(=O)C(=O)OC [Dimethyloxalylglycine]; settings: top dose 4000 µM; top dose inferred
# Procedure: as §1
# UNC1215 = compound: O=C(c1ccc(C(=O)N2CCC(N3CCCC3)CC2)c(Nc2ccccc2)c1)N1CCC(N2CCCC2)CC1 [UNC1215]; settings: top dose 1 µM; top dose inferred
# Procedure: as §1
Cell Line,AUC (17-AAG),IC50 (17-AAG) [µM],AUC (Doxorubicin),IC50 (Doxorubicin) [µM],AUC (BIX02189),IC50 (BIX02189) [µM],AUC (CCT018159),IC50 (CCT018159) [µM],AUC (OSI-027),IC50 (OSI-027) [µM],AUC (TG101348),IC50 (TG101348) [µM],AUC (VX-11e),IC50 (VX-11e) [µM],AUC (Vismodegib),IC50 (Vismodegib) [µM],AUC (Dimethyloxalylglycine),IC50 (Dimethyloxalylglycine) [µM],AUC (UNC1215),IC50 (UNC1215) [µM]
"MKN28 (stomach, adherent)",0.835,0.675,0.384,0.0305,0.933,> 20,0.953,> 10,0.94,> 20,0.88,> 10.2,0.912,> 5.12,0.972,> 10,0.713,1020,,
"LN-229 (glioma, adherent)",0.694,0.219,0.69,,0.988,> 20,0.938,> 10,,,0.955,> 10.2,0.98,> 5.12,0.986,> 10,0.422,154,0.986,> 1
"AGS (stomach, adherent)",0.314,0.0201,0.277,0.0161,0.976,> 20,0.824,5.16,0.898,> 20,0.888,9.5,0.788,2,0.988,> 10,0.646,605,,
"PANC-04-03 (pancreas, adherent)",0.639,0.191,0.792,0.83,0.947,> 20,0.858,> 10,0.846,> 20,0.918,> 10.2,0.912,> 5.12,0.976,> 10,0.69,1190,,
"201T (lung adenocarcinoma, adherent)",0.649,0.18,0.354,0.0227,0.947,> 20,0.96,> 10,0.745,7.67,0.836,9.43,0.967,> 5.12,0.981,> 10,0.173,18.8,,
"PA-1 (ovary, adherent)",0.917,0.928,0.212,,0.898,15.4,0.81,3.92,0.068,< 0.0781,0.573,0.968,0.99,> 5.12,0.992,> 10,0.37,,,
"KARPAS-231 (B-cell leukaemia, suspension)",0.94,> 1,0.468,0.0534,,,0.889,6.84,0.012,< 0.0781,0.512,0.684,,,0.907,8.06,0.275,68.8,0.991,> 1
